Data reported in ChEMBL document CHEMBL1201862, “PubChem BioAssay data set” (2004).

tested on: NCI-H322M; assay: NCI anticancer screen, dose series, 48 h

Q: How did the GI50 turn out when C=CCCCCNC(=O)C[C@@H]1C2=C(CC[C@H]1O[Si](C)(C)C(C)(C)C)N1C(=O)CCC/C=C\C1C2 (some centres undefined) was run?
A: inactive: 16.2 µM

Q: With CCOC(=O)c1c(C)nc2c(c1-c1cn(-c3ccccc3)nc1-c1ccccc1)C(=O)c1ccccc1-2 as the molecule, how does the GI50 read?
A: inactive: > 100 µM

Q: Cc1ccc2c(c1)-c1c(C#N)c(N)nc(-c3ccc(Cl)cc3)c1CCS2(=O)=O was tested. Which GI50 did it give?
A: inactive: 23.1 µM

Q: With C/C(=N\Nc1nc2ccccc2s1)c1cc2ccccc2cn1 as the molecule, how does the GI50 read?
A: inactive: 5.51 µM

Q: For COc1cc([C@@H]2c3cc4c(cc3C[C@H]3COC(=O)[C@@H]32)OCO4)cc2c1OCO2 [AUSTROBAILIGNAN 1], which GI50 is on record?
A: active: < 0.01 µM

Q: Which GI50 does the source give for CC(C)C[C@H](NC(=O)CCc1ccccc1)B(O)O here?
A: inactive: 81.5 µM

Q: How did the GI50 turn out when CC1(C)CC[C@]2(C)[C@@H](O)C[C@]3(C)C(=CC[C@@H]4[C@@]5(C)CC[C@H](O)C(C)(C)[C@@H]5CC[C@]43C)[C@@H]2C1 was run?
A: inactive: 44.3 µM

Q: With CCOC(=O)c1sc2c(c1OC(=O)c1ccco1)c(=O)n(-c1ccccc1)c(=S)n2-c1ccccc1 as the molecule, how does the GI50 read?
A: inactive: 46.1 µM

Q: How did the GI50 turn out when Cc1cc(NC[C@H](O)[C@H](O)[C@H](O)CO)c(Sc2cc(=O)[nH]c(=O)[nH]2)cc1C was run?
A: inactive: > 62.5 µM

Q: With C[C@H](NC(=O)OC1C2C=CC(O)C1CC2)c1ccccc1 (some centres undefined) as the molecule, how does the GI50 read?
A: inactive: > 100 µM

Q: Which GI50 does the source give for CCOC(=O)C1C(C(C)C)C2(C#N)C(=N)OC1(C)C2(C#N)C#N (centres undefined) here?
A: inactive: > 100 µM

Q: How did the GI50 turn out when COc1ccc2c3c([nH]c2c1[N+](=O)[O-])C(C)=NCC3 was run?
A: inactive: 28.5 µM

Q: For O=C(O)C(Oc1nc(S)nc(S)n1)(c1ccc(Cl)cc1)c1ccc(Cl)cc1, which GI50 is on record?
A: inactive: > 100 µM

Q: With NC(Cc1c[nH]c2ccccc12)P(=O)(O)O (centres undefined) as the molecule, how does the GI50 read?
A: inactive: > 100 µM

Q: How did the GI50 turn out when CCCSC1=N/C(=C\c2ccco2)C(=O)N1 was run?
A: inactive: > 100 µM

Q: How did the GI50 turn out when Cc1c(C(=O)c2ccccc2C(=O)O)c2ccccc2n1C was run?
A: inactive: > 100 µM

Q: For CC1=CC[C@@]2(CO)[C@@H]([C@@H]1C)[C@H]1CC[C@@H]3[C@@]4(C)CC[C@H](O)C(C)(C)[C@@H]4CC[C@@]3(C)[C@]1(C)C[C@@H]2O, which GI50 is on record?
A: inactive: 38.4 µM

Q: How did the GI50 turn out when c1ccc(CCN2CCN=C2Cc2ccccc2)cc1 was run?
A: inactive: > 100 µM

Q: How did the GI50 turn out when O=C(Nc1ccc(Br)cc1)C(=O)C(C(=O)c1ccc(Cl)c(Cl)c1)C1OC(=O)c2ccccc21 (centres undefined) was run?
A: inactive: 12.8 µM

Q: How did the GI50 turn out when COc1cc(CN(C)N2C(=O)c3cccc4cc([N+](=O)[O-])cc(c34)C2=O)cc(OC)c1OC was run?
A: inactive: > 100 µM

Q: Which GI50 does the source give for C=C(C)[C@@H]1CCC2=C[C@H](OC2=O)[C@@]2(C)C[C@@H]2C(=O)/C=C(/C)C(=O)[C@H]1OC(C)=O here?
A: inactive: 42.6 µM

Q: For [O-][n+]1c2cc3c(cc2[n+]([O-])c2c(O)cccc21)CN(CCN1CCOCC1)C3, which GI50 is on record?
A: inactive: 36 µM

Q: O=C(Nc1cc2c(=O)oc3ccccc3c2oc1=O)c1cccnc1 was tested. Which GI50 did it give?
A: inactive: > 100 µM

Q: With CC(C)(C)OC(=O)C1C(=O)NC(=O)CC1C(COCc1ccccc1)OCc1ccccc1 (centres undefined) as the molecule, how does the GI50 read?
A: inactive: 36.1 µM

Q: For c1ccc(C/C(=N\Nc2nc3ccccc3o2)c2ccccn2)cc1, which GI50 is on record?
A: active: 0.0507 µM

Q: Which GI50 does the source give for CCOC(=O)c1cc(C(=O)O)c(=O)n2c1[nH]c1ccccc12 here?
A: inactive: > 100 µM

Q: O=[N+]([O-])c1ccccc1S(=O)(=O)c1ccccc1[N+](=O)[O-] was tested. Which GI50 did it give?
A: inactive: > 100 µM

Q: With Oc1cccc2c1NC1=C(CCC/C1=C\c1ccccc1)C2 as the molecule, how does the GI50 read?
A: inactive: > 100 µM

Q: How did the GI50 turn out when CCOC(=O)Cc1nc2ccccc2s1 was run?
A: inactive: 22.9 µM

Q: Which GI50 does the source give for Cc1[nH]c2ncn(/N=C/c3ccccc3O)c(=N)c2c1Cc1ccccc1 here?
A: inactive: 84.9 µM

Q: How did the GI50 turn out when C/C=C1\CN2CCc3c([nH]c4ccccc34)C2CC1C(=O)OC (centres undefined) was run?
A: inactive: > 322 µM

Q: With O=[N+]([O-])c1ccc(C2ON=C(c3ccccc3)N2C23CC4CC(CC(C4)C2)C3)cc1 (centres undefined) as the molecule, how does the GI50 read?
A: inactive: > 10 µM

Q: For COC(=O)[C@H]1ON2O[C@@H](O[C@H]3CCCC[C@@H]3C(C)(C)c3ccccc3)C[C@@H]3CC[C@H]1[C@@]32C, which GI50 is on record?
A: inactive: > 100 µM

Q: With COc1ccccc1-c1cc(=O)c2ccc(OC)c(OC)c2o1 as the molecule, how does the GI50 read?
A: inactive: 61.7 µM

Q: c1ccc(-c2cc(-c3ccccc3)nc(-c3ccncc3)c2)cc1 was tested. Which GI50 did it give?
A: inactive: > 100 µM

Q: How did the GI50 turn out when CC1(C)O[C@H]2OC(CO)C(N=[N+]=[N-])[C@H]2O1 (some centres undefined) was run?
A: inactive: > 100 µM

Q: With COC(=O)c1ccccc1N(C(=O)c1ccccc1)c1ccccc1C as the molecule, how does the GI50 read?
A: inactive: 59.3 µM

Q: Which GI50 does the source give for COc1nc(O)nc2c1C(c1ccc([N+](=O)[O-])cc1)c1c(OC)nc(O)nc1O2 here?
A: inactive: > 100 µM

Q: How did the GI50 turn out when Nc1cccc(S(=O)(=O)Nc2nnc(S(N)(=O)=O)s2)c1 was run?
A: inactive: > 100 µM

Q: How did the GI50 turn out when C=CCOc1ccc(C2(c3ccc(OCC=C)cc3)C(=O)Nc3ccccc32)cc1 was run?
A: inactive: > 10 µM

Q: Which GI50 does the source give for Cc1ccc(S(=O)(=O)N/N=C2\C3CC4CC(C3)C2C4)cc1 (centres undefined) here?
A: inactive: > 100 µM

Q: For CN(COC(=O)c1ccccc1)c1nc(N(C)COC(=O)c2ccccc2)nc(N(C)COC(=O)c2ccccc2)n1, which GI50 is on record?
A: inactive: > 90.6 µM

Q: How did the GI50 turn out when Cc1cc(C)n2c(-c3ccccc3)c(C)cc2n1 was run?
A: inactive: 72.3 µM

Q: Which GI50 does the source give for Oc1ccc([Te]CCNCC[Te]c2ccc(O)cc2)cc1 here?
A: inactive: 27.4 µM

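Grown in 96-well plates, cells were treated for 48 hours with each compound at five concentrations. Insufficient inhibition: endpoint recorded as highest concentration tested. The concentration for 50% growth inhibition is given as GI50.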 Active and inactive are the calls of the source. Rule as the data show it: active = GI50 up to about 1.1 µM and inactive = higher.
